# In the antibiotic and cytotoxicity screens of Wong et al. (2023):
# The other results are listed elsewhere or left out.
# Columns and labels:
# [1] = tested on: HSkMC (human skeletal muscle cells); assay: cytotoxicity call (relative viability < 0.9); conditions: 10 µM
# [2] = tested on: HepG2; assay: cytotoxicity call (relative viability < 0.9); conditions: 10 µM
# [3] = tested on: S. aureus RN4220; assay: growth inhibition call (relative growth <= 0.2); conditions: 50 µM
SMILES,cytotoxicity call [1],cytotoxicity call [2],growth inhibition call [3]
C[C@@H]1CCCCO[C@@H](CN(C)Cc2ccc(C(=O)O)cc2)[C@H](C)CN([C@@H](C)CO)C(=O)c2cc(NC(=O)NC3CCCCC3)ccc2O1,inactive,inactive,inactive
CC(C)N1C[C@H](C)[C@@H](CN(C)Cc2ccc(Oc3ccccc3)cc2)Oc2c(NC(=O)c3ccncc3)cccc2C1=O,inactive,inactive,inactive
Cc1ccc(S(=O)(=O)N(C)C[C@H]2Oc3ccc(NC(=O)CCCN(C)C)cc3CC(=O)N([C@H](C)CO)C[C@H]2C)cc1,inactive,inactive,inactive
C[C@@H]1CN([C@H](C)CO)C(=O)c2cc(NS(=O)(=O)c3ccccc3)ccc2O[C@H]1CN(C)S(=O)(=O)c1ccc(F)cc1,inactive,inactive,inactive
C[C@H](CO)N1C[C@H](C)[C@H](CN(C)S(C)(=O)=O)Oc2ccc(NS(=O)(=O)c3cccs3)cc2CC1=O,inactive,inactive,inactive
C[C@@H]1CN([C@@H](C)CO)C(=O)c2cc(NC(=O)c3ccccc3)ccc2O[C@@H](C)CCCCO[C@H]1CN(C)C(=O)Nc1ccc2c(c1)OCO2,inactive,inactive,inactive
CN(C)CC#Cc1ccc([C@@H]2[C@@H](CO)N3C(=O)CN(C(=O)c4cccnc4)C[C@H]23)cc1,inactive,inactive,inactive
Cc1nnc(SCC2=C(C(=O)O)N3C(=O)[C@@H](N)[C@H]3SC2)s1,inactive,inactive,inactive
Nc1cc(=O)nc2sc(C3CC3)nn12,inactive,inactive,inactive
O=C(C[C@H]1CC[C@H]2[C@@H](COC[C@@H](O)CN2C(=O)Nc2cc(Cl)cc(Cl)c2)O1)N1CCOCC1,inactive,inactive,inactive
COc1ccc(S(=O)(=O)N(C)C[C@H]2OCCCC[C@H](C)Oc3ccc(NS(C)(=O)=O)cc3C(=O)N([C@H](C)CO)C[C@@H]2C)cc1,inactive,inactive,inactive
C[C@]12CC[C@@H]3[C@]4(C=C[C@@]5(C=C4C(=O)C4CCCCC4)C[C@@H](O)CC[C@]35C)[C@@H]1CC[C@@]2(O)CN1CCC(n2c(=O)[nH]c3ccccc32)CC1,inactive,inactive,inactive
O=C(CN1CCOCC1)N[C@H]1CC[C@@H](CCNC(=O)C2CCCCC2)O[C@H]1CO,inactive,inactive,inactive
C[C@H](CO)N1C[C@H](C)[C@H](CN(C)Cc2ccc(-c3ccccc3)cc2)Oc2ccc(NC(=O)c3ccncc3)cc2C1=O,inactive,inactive,inactive
C=CC[C@@H](CC(=O)NCCO)C(=O)NC[C@H](OC(=O)[C@@H](CC=C)CC(=O)OC(C)(C)C)c1ccccc1,inactive,inactive,inactive
C[C@H](CO)N1C[C@H](C)[C@@H](CN(C)S(C)(=O)=O)Oc2c(NC(=O)Nc3ccc(F)cc3)cccc2C1=O,inactive,inactive,inactive
O=C(O)c1ccccc1C(=O)Nc1ccc(S(=O)(=O)Nc2nccs2)cc1,inactive,inactive,inactive
COc1ccc(NC(=O)N(C)C[C@@H]2OCCCC[C@@H](C)Oc3ccc(NS(=O)(=O)c4ccc(Cl)cc4)cc3C(=O)N([C@@H](C)CO)C[C@H]2C)cc1,inactive,inactive,inactive
Cc1noc(C)c1NC(=O)N(C)C[C@H]1Oc2ccc(NC(=O)c3ccncc3)cc2CC(=O)N([C@H](C)CO)C[C@@H]1C,inactive,inactive,inactive
O=C(/C=N/O)Nc1ccccc1C(=O)O,inactive,inactive,inactive
Cc1ccc(S(=O)(=O)NCCC(=O)O)cc1,inactive,inactive,inactive
CCS(=O)(=O)Nc1ccc2c(c1)C(=O)N(C)[C@H]1CC[C@H](CC(=O)NCc3ccc(OC)cc3)O[C@H]1CO2,inactive,inactive,inactive
COc1ccc2nc(S(=O)Cc3ncc(C)c(OC)c3C)[nH]c2c1 (stereo unspecified),inactive,inactive,inactive
COc1ccc(S(=O)(=O)Nc2ccc3c(c2)CC(=O)N([C@H](C)CO)C[C@@H](C)[C@@H](CN(C)S(=O)(=O)c2ccccc2)O3)cc1,inactive,inactive,inactive
Cc1noc(C)c1S(=O)(=O)N(C)C[C@H]1Oc2ccc(NC(=O)Nc3ccccc3)cc2CC(=O)N([C@H](C)CO)C[C@H]1C,inactive,inactive,inactive
O=C(C[C@@H]1CC[C@H]2[C@@H](COC[C@H](O)CN2C(=O)Nc2ccc(Cl)c(Cl)c2)O1)NCc1ccncc1,inactive,inactive,active
C[C@@H]1CN([C@@H](C)CO)C(=O)c2cc(NS(=O)(=O)c3cn(C)cn3)ccc2O[C@@H](C)CCCCO[C@H]1CN(C)Cc1ccc(C(F)(F)F)cc1,inactive,inactive,inactive
